Data published in PubChem BioAssay AID1345083 (National Center for Advancing Translational Sciences (NCATS), 2018).
Several values for one entry are separate records, joined by “and”; a condition that tells them apart may be missing. Equal entries are not always repeated. About 6,200 (6.6%) of roughly 94,000 compounds were called active. The shares of active, inactive and inconclusive entries below differ from those in the screen. The call rests on the fitted dose curve; in most records, active means well fitted inhibition curve with a large enough effect; inconclusive means small, poorly fitted or top-dose-only effect; inactive means flat fitted curve, though single readings scatter. A potency beside an inconclusive call is a rough fit, not a confirmed value.

Assay: Cytotoxic Profiling in HEK 293 Cell Line of Diverse Libraries Using Quantitative High-Throughput Screening; further: nearly all actives have a fitted effect of over 60% in size
Details: HEK 293 viability, ATP luminescence (CellTiter-Glo), 48-72 h; series mostly up to 115 µM
How it was run: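 CellTiter-Glo luminescence (cellular ATP) was read after 48 or 72 hr of compound exposure at 37 degree Celsius. Cells were HEK 293 plated at 250 cells/well.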
Potency means the concentration at half of the fitted maximal effect; tags describe the fitted curve by direction and shape.

Row | SMILES | Potency
1 | COc1ccc(CC(=O)NC2CCCN(Cc3ccc(-c4cc(C)cc(C)c4)cc3)C2)cc1 (stereo unspecified) | active: 22.4 µM
2 | Cc1cc(=O)n(CC(=O)NC(C)C)c(N2CCc3ccccc3C2)n1 | inconclusive: 89.1 µM [inhibitor, single point]
3 | Cc1ccc(CN2CCC3(CC2)C(=O)NCN3Cc2ccc(Cl)cc2)cc1 | inconclusive: 89.1 µM [inhibitor, partial curve, poor fit]
4 | Cc1cc2cccc(C(=O)N[C@H]3CCOC[C@H]3C3CCOCC3)c2o1 | inactive
5 | Cc1ccccc1CN1C[C@@H](CO)[C@H](c2nc(-c3ccncc3)no2)C1 | inconclusive: 56.2 µM [inhibitor, partial curve, poor fit]
6 | CCOCCCNC(=O)C1CCCN(Cc2cccc(-c3cccs3)c2)C1 (stereo unspecified) | inconclusive: 70.8 µM [inhibitor, partial curve, poor fit]
7 | CN1Cc2cc(F)ccc2NCCC1=O | inconclusive: 50.1 µM [inhibitor, partial curve, poor fit]
8 | Cc1cnc(C(=O)N2CCC(c3nc(CCOc4ccc(F)cc4)no3)C2)cn1 (stereo unspecified) | inconclusive: 79.4 µM [inhibitor, partial curve, poor fit]
9 | O=C(NCCc1ccccc1F)c1cn2cc(-c3cccc(C(F)(F)F)c3)sc2n1 | inconclusive: 50.1 µM [inhibitor, partial curve, poor fit]
10 | CC(C)N1C[C@@H](F)[C@@H](OCc2nc3ccc(F)cc3[nH]2)C1 | inactive
11 | CN(C)C1(CC2CC2)CCN(C(=O)c2ccsc2)CC1 | inactive
12 | Brc1ccc(CN2CCC(c3nc4ncccc4[nH]3)C2)cc1 (stereo unspecified) | inconclusive: 50.1 µM [inhibitor, partial curve, poor fit]
13 | COc1ccc(C(=O)NCCn2ccn3nc(-c4ccc(C)cc4C)cc3c2=O)cc1F | inconclusive: 15.8 µM [inhibitor, full curve, poor fit]
14 | COc1cccc(S(=O)(=O)N2CCC(Cc3nncn3C)CC2)c1 | inactive
15 | O=C(c1cnccn1)N1CCC(Oc2ccccc2-c2nc(-c3ccccc3)no2)C1 (stereo unspecified) | inconclusive: 39.8 µM [inhibitor, partial curve, poor fit]
16 | COc1ccc(-c2noc([C@@H]3CCCN3C(=O)c3ccc(C(C)(C)C)cc3)n2)cc1OC | inconclusive: 50.1 µM [inhibitor, partial curve, poor fit]
17 | N#Cc1cccnc1-c1cccc(C(=O)NCCNC(=O)Cc2ccccn2)c1 | inactive
18 | O=C(CNC(=O)c1ccc(-c2cnc3ccccc3c2)cc1)NCC(F)F | inconclusive: 89.1 µM [inhibitor, single point]
19 | Cn1nccc1C(=O)N1CC(c2ncc3c(-c4ccccc4)nccn23)C1 | inconclusive: 70.8 µM [inhibitor, full curve, poor fit]
20 | O=C(NC1CCCCC1)N1CCC(OCc2noc(C3CCCO3)n2)CC1 (stereo unspecified) | inactive
21 | Cc1nnc2n1CCC(N(C)C(=O)CC1=CCCCC1)CC2 (stereo unspecified) | inactive
22 | Cn1nc(C2CCCC2)cc1NC(=O)c1cccc(Cl)c1 | inconclusive: 100 µM [inhibitor, partial curve]

Row | SMILES | Potency
23 | O=C(NC1CCCN(CCn2nc3n(c2=O)CCCC3)C1)c1ccncc1 (stereo unspecified) | inactive
24 | CC(C)NC(=O)C[C@@H]1C[C@H]2O[C@H](CNC(=O)NCc3ccccc3)[C@@H](O)[C@H]2O1 | inactive
25 | O=C(CCCN1C(=O)COc2ccc(C(=O)COc3cccc(Cl)c3)cc21)NCc1ccccc1 | inconclusive: 50.1 µM [inhibitor, partial curve, poor fit]
26 | CN(CC1CCOC1)S(=O)(=O)c1ccccc1Br (stereo unspecified) | inactive
27 | CNC(=O)c1c(C)nc2cnccn12 | inactive
28 | O=C(c1ccc(F)cc1F)N1CCC2(CC1)NC(=O)N(Cc1ccccc1)C2=O | inconclusive: 50.1 µM [inhibitor, partial curve, poor fit]
29 | CN1CC(CO)C2(CCN(Cc3ccc(Cl)cc3)CC2)C1 (stereo unspecified) | inconclusive: 35.5 µM [inhibitor, partial curve, poor fit]
30 | COc1ccc(C(=O)NC2CCCN(c3cc(-c4ccccc4)[nH]n3)C2)cc1F (stereo unspecified) | inconclusive: 12.6 µM [inhibitor, full curve, poor fit]
31 | CCn1cc(S(=O)(=O)N2CC(F)(F)C[C@H]2c2nnc(C)o2)cn1 | inactive
32 | CC1=C[C@@H](CN2CCN(CCO)CC2)[C@H](C(C)C)C[C@H]1Cc1nnc(-c2ccncc2)o1 | active: 44.7 µM
33 | O=[S+]([O-])(Nc1ccccc1)c1ccc2c(c1)OCCN(Cc1nccs1)C2 | inconclusive: 100 µM [inhibitor, partial curve, poor fit]
34 | COC(=O)[C@H](Cc1ccc(OC)cc1)NC(=O)[C@H]1CN(S(=O)(=O)c2ccccc2)CCN1C(=O)c1cccs1 | active: 79.4 µM
35 | c1ccc(COc2ccc(CN3CCSCC3)cc2)nc1 | inconclusive: 89.1 µM [inhibitor, single point]
36 | O=S(=O)(c1ccccc1C(F)(F)F)N1CC(c2nc(-c3ccncc3)no2)C1 | inconclusive: 44.7 µM [inhibitor, partial curve, poor fit]
37 | Cc1noc(-c2ccc(OC3CN(C(=O)CC4CCCC4)C3)cc2)n1 | active: 31.6 µM
38 | COc1cccc(CCC(=O)N2CCC(N3C(=O)N(C)CC34CCOC4)CC2)c1 (stereo unspecified) | inactive
39 | Cc1ccc(C(=O)N2CCCC(c3nn(-c4ccccc4)c(=O)[nH]3)C2)cc1 (stereo unspecified) | inconclusive: 50.1 µM [inhibitor, partial curve, poor fit] and inconclusive: 79.4 µM [inhibitor, single point]
40 | O=C(NCc1ccc(F)cc1)N1CC(c2noc(C3CCCN3CC3CC3)n2)C1 (stereo unspecified) | inactive
41 | Cc1ccc(Cl)cc1NC(=O)N1C[C@@H](F)C[C@H]1C(=O)N1CCc2ccccc2C1 | inconclusive: 79.4 µM [inhibitor, single point]
42 | COCCCn1c(=O)c(C(=O)N2CCN(C(=O)C(C)(C)C)CC2)nc2cccnc21 | inactive
43 | Cc1cc(C(=O)N2CC(Oc3ccc(-c4nc(-c5ccccc5)no4)cc3)C2)n[nH]1 | inactive
44 | COc1ccc(CN2C(=O)[C@H](OC)[C@@H]2C2=CCN(C(=O)CC(C)C)CC2)cc1 | inconclusive: 56.2 µM [inhibitor, partial curve, poor fit]

Row | SMILES | Potency
45 | O=C(c1nc2cccnc2n(CCc2ccccc2)c1=O)N1CCN(Cc2ccccc2)CC1 | inconclusive: 100 µM [inhibitor, single point]
46 | CNC(=O)Nc1ccc(C)n(CC(=O)N2CCN(c3cc(C)ccc3C)CC2)c1=O | inconclusive: 56.2 µM [inhibitor, partial curve, poor fit]
47 | O=C1N[C@H](CC(=O)N2CCC(Cc3ccccc3)CC2)C(=O)Nc2ccccc21 | inconclusive: 50.1 µM [inhibitor, partial curve, poor fit]
48 | COc1cccc(CC(=O)N2CCCCCCNC(=O)CC2c2ccccc2)c1 (stereo unspecified) | inactive
49 | CCOC(=O)[C@@H]1CN(C(=O)NC2CCCC2)[C@H]2c3ccccc3O[C@@H]12 | inconclusive: 50.1 µM [inhibitor, partial curve, poor fit]
50 | O=C1COc2ccc(N3CCOCC3)nc2CN1CCOc1ccccc1 | inconclusive: 112 µM [inhibitor, partial curve, poor fit]
51 | O=C1NC(=NC2CCCCC2)C2(CCN(Cc3ccsc3)CC2)N1c1cc(F)cc(F)c1 | inactive
52 | O=C(CNC(=O)c1ccc(-c2cccc(C(F)(F)F)c2)cc1)NCc1cccs1 | inconclusive: 28.2 µM [inhibitor, partial curve, poor fit]
53 | O=C(Nc1ccccc1)N1CCn2c(nn(-c3ccc([N+](=O)[O-])cc3)c2=O)C1 | inconclusive: 50.1 µM [inhibitor, partial curve, poor fit]
54 | O=C1CC(c2ccccc2)N(C(=O)CC2CCCC2)CCCCCCN1 (stereo unspecified) | inconclusive: 44.7 µM [inhibitor, partial curve, poor fit]
55 | CC(C)(C)C1CCc2[nH]nc(C(=O)N3CCc4nn(CC#N)c(=O)n4CC3)c2C1 (stereo unspecified) | inconclusive: 70.8 µM [inhibitor, single point]
56 | O=C1c2cnccc2OC2(CCCC2)CN1Cc1ccccc1 | inconclusive: 79.4 µM [inhibitor, partial curve, poor fit]
57 | CCC(=O)N1CCC(Oc2ncccc2C(N)=O)CC1 | inactive
58 | Cc1ccccc1-c1noc(CCC(=O)N[C@H]2CC[C@H]2N)n1 | inactive
59 | COc1cccc(C2CCCCN2Cc2nc(CCc3ccccc3)no2)c1 (stereo unspecified) | inactive
60 | CC(=O)NC(CO)C(=O)N1CCc2onc(-c3cccc4ccccc34)c2C1 (stereo unspecified) | inactive
61 | CCOC(=O)[C@@H]1CN(C(=O)c2cccc(C#N)c2)[C@H]2c3ccccc3O[C@@H]12 | inconclusive: 35.5 µM [inhibitor, partial curve, poor fit]
62 | Cc1nn(C)cc1CN1C[C@@H](COCC(N)=O)[C@H](c2ccncc2)C1 | inconclusive: 89.1 µM [inhibitor, single point]
63 | Cc1nc2cccnc2n1CC1CCCN(C(=O)Nc2cccc(C(F)(F)F)c2)C1 (stereo unspecified) | inconclusive: 89.1 µM [inhibitor, single point]
64 | CC(=O)Nc1ccc(CN2CCCCC23Cc2ccccc2CNC3=O)cc1 (stereo unspecified) | inactive
65 | CN(Cc1ccccc1)C(=O)c1cc(-c2ccccc2C(F)(F)F)nc2c1cnn2C | inconclusive: 50.1 µM [inhibitor, partial curve, poor fit]
66 | O=C(Cc1cccc(Cl)c1)N1CCC(n2cc(-c3nc(C4CC4)no3)nn2)C1 (stereo unspecified) | inactive
